Over roughly 33,000 sequences, “E-score (dimensionless, -0.5 to 0.5)” has its median near -0.058; the highest 2% begin near 0.35. The list shows a part of the results.
system: MvaT; test: PBM 8-mer E-score (mean of HK and ME arrays) (E-score (dimensionless, -0.5 to 0.5)); higher = stronger relative binding preference; most listed sequences are background and not binding sites
Method: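 Protein binding microarray: GST-tagged full-length MvaT (P. aeruginosa PAO1) bound to two universal double-stranded 60-mer arrays (ME and HK), each with a constant 25-mer primer and a variable 35-mer region covering all 8-mers. The 8-mer E-score (rank-based, range -0.5 to 0.5, >0.45 = specific binding) is the mean of the two arrays.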

| Sequence | PBM 8-mer E-score |
| --- | --- |
| CCTCATCG | -0.214 |
| CGAATGCC | -0.185 |
| CTTTAGTC | -0.127 |
| ATGCCGCG | -0.149 |
| GAGGTAGA | -0.147 |
| GACTGGAC | -0.108 |
| CTAGACTA | -0.0236 |
| CTTAAACA | 0.156 |
| CTAGGGGC | -0.298 |
| GCCAGTAC | -0.0306 |
| CTGTCAGC | -0.181 |
| CGCAACCC | -0.0943 |
| ATCGAGGG | -0.246 |
| ACTACTGG | 0.0326 |
| GAGTACAC | -0.00583 |
| CTAGGTTA | -0.0518 |
| CATAAACA | 0.221 |
| ACAGGTCT | -0.131 |
| GTGGAAAC | -0.123 |
| AAATTGAG | 0.218 |
| ATTAGCGG | -0.0498 |
| CGTTTAGC | -0.0192 |
| AACCCTTG | -0.138 |
| ATCAGGCG | -0.0225 |
| ATAACCGC | 0.134 |

| Sequence | PBM 8-mer E-score |
| --- | --- |
| AGCTAATA | 0.292 |
| CATCGGAA | -0.0575 |
| AATGCACA | 0.156 |
| CCGAGTCG | -0.193 |
| ACTCTTAA | 0.223 |
| ACTCATGC | -0.131 |
| ACACTCAC | -0.0149 |
| TAACGGCA | 0.0803 |
| AACCTGCG | -0.133 |
| CGCTTTCC | -0.208 |
| CAGCCAAA | -0.0503 |
| AAGTGGTG | 0.0778 |
| GTGGTCGA | -0.241 |
| AACACGGG | -0.0612 |
| GGGTCATA | -0.0569 |
| ACAAATCC | 0.0804 |
| CCGTAAGC | -0.12 |
| ACCCACGC | -0.179 |
| CACCTTGA | -0.124 |
| TTCGAGAA | 0.0479 |
| CCACGTGG | -0.133 |
| AGACGCAC | 0.00037 |
| CCTCGCCA | -0.0344 |
| GGCGGCTA | -0.26 |
| AGATCCTA | -0.24 |

| Sequence | PBM 8-mer E-score |
| --- | --- |
| GCATCAAA | 0.108 |
| AAGACTAC | -0.0432 |
| GACTGGCC | -0.107 |
| CCACGTGC | -0.191 |
| CATCTACA | 0.0792 |
| AAGCAAGT | 0.254 |
| ATCCAAGC | -0.169 |
| ATAGACTA | 0.266 |
| CCCACTAC | -0.0788 |
| CACAGGCA | -0.166 |
| CCTAGCCC | -0.211 |
| AAAGATGT | 0.12 |
| GAGGAGCC | -0.425 |
| CGTTGATC | -0.0686 |
| ATATCGCG | 0.311 |
| AACGGAGA | -0.128 |
| CAATCTAA | 0.124 |
| AGTGTATA | 0.268 |
| GAGTTCGC | -0.0664 |
| ACTCCAGG | -0.157 |
| GCTAGTAA | 0.0817 |
| AAACTACT | 0.303 |
| GACCGGTA | 0.0195 |
| CGCGTGAG | -0.167 |
| AGCGAGCT | -0.0901 |

| Sequence | PBM 8-mer E-score |
| --- | --- |
| AGGTTCAC | -0.0288 |
| AGCTGTCA | -0.156 |
| AACGGCTC | 0.0115 |
| AACGCCCA | -0.0993 |
| CAGAAACC | -0.146 |
| CACAGGGA | -0.129 |
| CGTTCGGA | -0.0914 |
| CGCCTTAG | -0.186 |
| CTCCACTC | -0.232 |
| AACGTACA | 0.132 |
| GGTAACTA | 0.107 |
| CGGCCGGC | -0.122 |
| CAGGAAAG | -0.11 |
| CCTAAAAG | 0.082 |
| CGTGCGTC | -0.273 |
| CATTCACC | 0.119 |
| CAAGGCTG | -0.161 |
| GGCAGTCA | -0.0856 |
| ACGCGTGA | 0.0619 |
| ACTGTGGC | -0.208 |
| GGTTATTA | 0.285 |
| ATCACCCA | 0.00261 |
| GTACGACA | 0.049 |
| GGAATCCC | -0.22 |
| ACCTATTG | 0.0798 |

| Sequence | PBM 8-mer E-score |
| --- | --- |
| GACAGCGA | -0.109 |
| GGATCACC | -0.172 |
| CTTAATTC | 0.281 |
| CCGTGGCA | -0.205 |
| CGCTTAGC | -0.213 |
| ACGAATAT | 0.252 |
| GCGGCTCC | -0.297 |
| AGCACCCG | -0.392 |
| CGTGCAAG | -0.0233 |
| GAATCCAC | -0.159 |
| CATATCCG | -0.0153 |
| AGCTCTAT | 0.0198 |
| AGGTAAAC | 0.0823 |
| ATATAGCG | 0.333 |
| CTCCGTCC | -0.242 |
| AGCACCAT | -0.169 |
| CAACGTGC | -0.198 |
| AATTCCGC | 0.0978 |
| AAAAGCAT | 0.0311 |
| GGACCATA | -0.132 |
| ATGACCAC | -0.00499 |
| GATTCAAC | -0.0777 |
| GTGCGGAA | -0.0324 |
| AAACACCG | 0.222 |
| ACGATAGC | -0.0306 |

| Sequence | PBM 8-mer E-score |
| --- | --- |
| AGCGACGC | -0.23 |
| ACTTTAGA | 0.199 |
| ACTTCACG | 0.015 |
| AGGGACAC | -0.232 |
| GGGGCTTA | -0.186 |
| CAGTCTGC | -0.126 |
| CACAGATA | 0.142 |
| ACGCATTC | -0.0386 |
| CCTAGCTA | -0.151 |
| GCATACTA | 0.186 |
| CCTACCAG | -0.279 |
| TGAAATCA | -0.0364 |
| CCGGGTCA | -0.174 |
| CACATTTA | 0.301 |
| CAGAAAGA | 0.0379 |
| AGGTTGTG | -0.073 |
| ATGGCCGC | -0.268 |
| CACGTAGA | 0.0372 |
| CGTTTGGC | -0.0932 |
| ACCGATGA | -0.128 |
| ATACAACC | 0.161 |
| CCCATTCA | -0.115 |
| ACTTGAAA | 0.308 |
| GAACCCCA | -0.265 |
| CGACTAAC | 0.0164 |

| Sequence | PBM 8-mer E-score |
| --- | --- |
| GATCGCGC | -0.193 |
| TCCCTAGA | -0.158 |
| GGTCGGCA | -0.197 |
| AAGAGGCT | -0.22 |
| ACATCTTC | 0.185 |
| CACGATAA | 0.214 |
| CATGCCGC | -0.26 |
| CGTTCATA | 0.0243 |
| CAACCTGA | -0.074 |
| ACGGAAAC | -0.0671 |
| ACCTGGCC | -0.117 |
| CATATACG | 0.143 |
| ACCGTTAA | 0.255 |
| GAGTTTGA | 0.0246 |
| ATTTATCG | 0.291 |
| CGAGTGCC | -0.245 |
| AACAAGGA | -0.128 |
| GGAGCTCC | -0.377 |
| CCTGGGCG | -0.251 |
| CACTGTGA | -0.112 |
| CTCTTGAA | -0.222 |
| CGACGGGA | -0.215 |
